{"source": "paper PMC6919601", "about": "“Identification of Plasmodium dipeptidyl aminopeptidase allosteric inhibitors by high throughput screening” (PLoS ONE, 2019)", "note": "About 230 (0.21%) of roughly 110,000 compounds showed an effect of 50% or more. This is one part of the list.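 Further: 30 min substrate incubation versus DMSO and 10 µM JCP410 controls.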", "data": [{"molecular_target": "DPAP1 (Plasmodium falciparum, UniProt Q8IIJ9)", "sequence (Q8IIJ9 whole entry, looked up)": "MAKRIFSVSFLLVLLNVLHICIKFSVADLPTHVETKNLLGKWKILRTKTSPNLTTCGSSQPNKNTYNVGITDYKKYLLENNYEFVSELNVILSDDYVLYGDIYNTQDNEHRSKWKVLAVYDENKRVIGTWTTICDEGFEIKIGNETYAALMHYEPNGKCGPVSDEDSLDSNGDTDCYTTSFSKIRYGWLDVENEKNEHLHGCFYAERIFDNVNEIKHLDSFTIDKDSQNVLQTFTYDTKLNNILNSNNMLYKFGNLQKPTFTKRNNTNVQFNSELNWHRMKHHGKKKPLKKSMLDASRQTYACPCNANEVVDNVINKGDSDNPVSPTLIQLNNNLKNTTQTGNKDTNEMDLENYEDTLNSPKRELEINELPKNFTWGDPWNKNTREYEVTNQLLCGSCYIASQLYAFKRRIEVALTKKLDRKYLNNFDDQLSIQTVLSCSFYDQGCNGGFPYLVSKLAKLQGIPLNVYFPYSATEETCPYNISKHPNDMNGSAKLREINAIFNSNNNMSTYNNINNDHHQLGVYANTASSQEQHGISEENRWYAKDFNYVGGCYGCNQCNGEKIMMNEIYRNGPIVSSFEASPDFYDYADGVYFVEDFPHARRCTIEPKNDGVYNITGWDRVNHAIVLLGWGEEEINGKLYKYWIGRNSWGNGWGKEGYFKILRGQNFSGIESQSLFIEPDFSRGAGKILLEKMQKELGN", "experiment": "primary screen, percent inhibition; read by cleavage of a fluorogenic dipeptide substrate; higher = more effect of the substance", "parameters": "species or system P. falciparum D10 trophozoite lysates; single well", "units": {"% Inhibition @ 10 uM": "%"}, "values": [{"smiles": "Cc1cc(C)n(C2CC(=O)N(c3ccccc3)C2=O)n1", "note": "(centres unmarked)", "% Inhibition @ 10 uM": 5.25}, {"smiles": "CC(=O)c1cccc(N2CC(C(=O)O)CC2=O)c1", "note": "(centres unmarked)", "% Inhibition @ 10 uM": 0.161}, {"smiles": "C=CCN(Cc1nc(-c2cccc(C)c2)no1)C(=O)NCCC", "% Inhibition @ 10 uM": 1.67}, {"smiles": "N#Cc1c(SCC(=O)Nc2nccs2)nsc1SCC(=O)Nc1nccs1", "% Inhibition @ 10 uM": 3.25}, {"smiles": "Cc1ccc(CNC(=O)CNC(=S)N(Cc2ccccc2)Cc2cccnc2)cc1", "% Inhibition @ 10 uM": -0.406}, {"smiles": "COc1ccc(OCCn2cc(C=C3C(=O)NC(=O)NC3=O)c3ccccc32)cc1", "% Inhibition @ 10 uM": 13.3}, {"smiles": "Cc1cc(C=C2C(=O)NC(=O)NC2=O)c(C)n1-c1ccc(N(C)C)cc1", "% Inhibition @ 10 uM": -4.8}, {"smiles": "O=C(Nc1cccc(-c2nc3cc(Cl)ccc3o2)c1)c1ccc(Cl)cc1", "% Inhibition @ 10 uM": 4.16}, {"smiles": "O=C(CSC1CC(=O)N(c2ccc(C(=O)O)cc2)C1=O)Nc1ccc2ccccc2c1", "note": "(centres unmarked)", "% Inhibition @ 10 uM": -5.79}, {"smiles": "COc1ccc(Nc2nc(-c3ccncc3)cs2)cc1", "% Inhibition @ 10 uM": -4.98}, {"smiles": "Cc1onc(-c2c(Cl)cccc2Cl)c1C(=O)N1CCCCCC1", "% Inhibition @ 10 uM": 0.177}, {"smiles": "CC(=O)CCS(=O)(=O)c1c(C)c(C)cc(C)c1C", "% Inhibition @ 10 uM": 2.33}, {"smiles": "O=C(CCC1CCCCC1)N1CCN(c2ccccc2F)CC1", "% Inhibition @ 10 uM": -3.24}, {"smiles": "CC(C)CCNC(=O)C1CCN(c2cnccn2)CC1", "% Inhibition @ 10 uM": -2.71}, {"smiles": "CCOC(=O)c1csc(CCN)n1", "% Inhibition @ 10 uM": -3.8}, {"smiles": "CCCO/C(O)=C1\\C(C)=NC2=C(C(=O)CC(C)(C)C2)C1c1cccc(Cl)c1Cl", "note": "(centres unmarked)", "% Inhibition @ 10 uM": -5.44}, {"smiles": "CC(C)C[C@H](NC(=O)c1cc(Br)c(Br)s1)C(=O)NCC#N", "% Inhibition @ 10 uM": -4.72}, {"smiles": "CSC1=C(C#N)C(c2ccc3c(c2)OCO3)C2=C(O)CCCC2=N1", "note": "(centres unmarked)", "% Inhibition @ 10 uM": -1.26}, {"smiles": "O=C(O)CNC(=O)/C(=C/c1ccc2c(c1)OCO2)NC(=O)c1ccco1", "% Inhibition @ 10 uM": -4.41}, {"smiles": "O=C(NC1CCSC1=O)c1cccs1", "note": "(centres unmarked)", "% Inhibition @ 10 uM": 3.27}, {"smiles": "COc1ccc(S(=O)(=O)N2CCC(NC(=O)N3CCCC3)CC2)cc1", "% Inhibition @ 10 uM": 3.69}, {"smiles": "c1ccc(CSc2ncnc3c2oc2ccccc23)cc1", "% Inhibition @ 10 uM": -3.21}, {"smiles": "C[C@@H](C[C@H](NC(=O)c1ccc(-c2cc(C(=O)O)ccc2Cl)cc1)C(=O)NCC#N)c1ccccc1", "% Inhibition @ 10 uM": 15.8}, {"smiles": "CN(C)C(=O)COC(c1ccccc1)(c1ccccc1)c1ccccc1", "% Inhibition @ 10 uM": -8.88}, {"smiles": "COc1cc(C(=O)n2nc(N)c3cc4ccc(C)cc4nc32)cc(OC)c1OC", "% Inhibition @ 10 uM": 3.2}, {"smiles": "Cn1ncc2c1ncn1nc(-c3ccccc3Cl)nc21", "% Inhibition @ 10 uM": -4.19}, {"smiles": "O=C(Nc1ccc(S(=O)(=O)N2CCCCC2)cc1)C(F)(F)F", "% Inhibition @ 10 uM": -7.34}, {"smiles": "COCCNC(=O)c1cnn2c(C(F)(F)F)cc(-c3ccc4c(c3)OCO4)nc12", "% Inhibition @ 10 uM": -2.29}, {"smiles": "CSc1ccc(/C=C2\\CC/C(=C\\C(C)C)C2=O)cc1", "% Inhibition @ 10 uM": 1.83}, {"smiles": "COC(=O)c1noc(-c2ccc(C)cc2)n1", "% Inhibition @ 10 uM": -3.53}, {"smiles": "CCOC(=O)c1ccc(-c2ccc(C=C3C(=O)OC(C)(C(C)(C)C)OC3=O)o2)cc1", "note": "(centres unmarked)", "% Inhibition @ 10 uM": 25.7}, {"smiles": "CCNC(=O)/C=C1\\NC(C)(C)Cc2c1ccc1ccccc21", "% Inhibition @ 10 uM": 2.17}, {"smiles": "Oc1ccccc1Cn1c(-c2ccccc2O)nc2ccccc21", "% Inhibition @ 10 uM": 1.64}, {"smiles": "COC(=O)C1=C(C)OC(N)=C(C#N)C1c1cccc(C(F)(F)F)c1", "note": "(centres unmarked)", "% Inhibition @ 10 uM": 25.7}, {"smiles": "COCCNC(=O)Cn1ncc2c3ccccc3n(C)c2c1=O", "% Inhibition @ 10 uM": -9.31}, {"smiles": "COc1ccc(-c2cc(N)n(S(=O)(=O)c3c(F)c(F)c(F)c(F)c3F)n2)cc1OC", "% Inhibition @ 10 uM": 8.53}, {"smiles": "Cc1cc(NC(=O)C(=O)c2cn(C)c3ccccc23)no1", "% Inhibition @ 10 uM": -0.403}, {"smiles": "C=CCOc1ccc(C=C2C(=O)OC(C)(C(C)(C)C)OC2=O)cc1", "note": "(centres unmarked)", "% Inhibition @ 10 uM": 0.146}, {"smiles": "Cc1[nH]c2ccccc2c1C(c1cccs1)N1CCCC1", "note": "(centres unmarked)", "% Inhibition @ 10 uM": 6.73}, {"smiles": "CCS(=O)(=O)C1=NSC2=NC(=O)/C(=C\\c3cc(C)n(-c4ccc(C)cc4)c3C)C(=N)N21", "% Inhibition @ 10 uM": -3.39}, {"smiles": "Cc1ccc(C)c(C(C)NC(=O)c2cnccn2)c1", "note": "(centres unmarked)", "% Inhibition @ 10 uM": 4.44}, {"smiles": "O=c1oc(-c2ccccc2)nc2sc3c(c12)CCC3", "% Inhibition @ 10 uM": 1.63}, {"smiles": "Cc1ccc(Nc2nc(-c3ccc(Br)cc3)cs2)cc1", "% Inhibition @ 10 uM": -2}, {"smiles": "COc1ccc(NC(=O)C23CC4CC(C2)CC(n2cnc(Br)n2)(C4)C3)c(C)c1", "% Inhibition @ 10 uM": -2.37}, {"smiles": "CN1C2CCC1/C(=C\\c1ccco1)C(=O)/C2=C\\c1ccco1", "% Inhibition @ 10 uM": 5.5}, {"smiles": "CCCC[C@H](NC(=O)[C@@H](NC(=O)c1ccc(CNC(=O)OC(C)(C)C)cc1)[C@H](C)CC)C(=O)CO", "% Inhibition @ 10 uM": 3.48}, {"smiles": "O=C(Nc1nc2ccccc2s1)C1c2ccccc2C(=O)N2CCc3ccccc3C12", "note": "(centres unmarked)", "% Inhibition @ 10 uM": -0.591}, {"smiles": "COc1ccccc1N(CC(=O)NC1CCCC1)S(C)(=O)=O", "% Inhibition @ 10 uM": 4.08}, {"smiles": "CCN1CCN(CC#Cc2cccc([C@@H](CC(C)C)C(=O)NCC#N)c2)CC1", "% Inhibition @ 10 uM": -4.72}, {"smiles": "N#CC1=C(N)Oc2cc(N)ccc2C1c1ccc(Cl)cc1Cl", "note": "(centres unmarked)", "% Inhibition @ 10 uM": 7.65}]}]}
